Assay results taken from the supplement of paper PMC3334620.
In all, about 33,000 sequences were measured (“E-score (-0.5 to 0.5)”: median about -0.04, highest 2% from about 0.36 on). The list shows a part of the results.

The sequences below were run against T1, Hmlalpha2 (UniProt P0CY09) (assay: PBM E-score (8-mer binding enrichment) (E-score (-0.5 to 0.5)); higher = stronger / more preferred TF binding; most listed sequences are background and not binding sites). Settings: protein concentration: 200 nM; construct: GST-full length.
T1 sequence: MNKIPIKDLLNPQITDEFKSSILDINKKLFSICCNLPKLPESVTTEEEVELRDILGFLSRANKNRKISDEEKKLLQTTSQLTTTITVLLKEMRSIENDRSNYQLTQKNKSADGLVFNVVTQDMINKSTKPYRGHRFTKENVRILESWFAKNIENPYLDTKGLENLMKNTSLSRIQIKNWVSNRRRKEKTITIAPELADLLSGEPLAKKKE
How it was run: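 Universal all-10-mer Agilent arrays, fresh or stripped once, were converted to double-stranded form by primer extension. GST-tagged yeast transcription factors from PURExpress in vitro transcription/translation, full-length or DNA-binding domain only, were applied at about 100-200 nM and detected with fluorescent anti-GST. After masliner normalisation, the Universal PBM Analysis Suite scored each ungapped eight-base word together with its reverse complement by E-score.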

Row | Sequence | PBM E-score
1 | ATGCGTAA | 0.375
2 | CCCTTGCG | -0.138
3 | AGTGTATC | 0.0798
4 | CGCAAGTC | -0.316
5 | AGGGTCGG | -0.221
6 | AGAGCACT | -0.0915
7 | CGGGTATA | 0.00682
8 | GAAACACC | 0.0502
9 | CCGCTGGC | -0.298
10 | CATAAGGG | -0.0564
11 | AGCCTATA | -0.0454
12 | GCCCACTA | -0.0975
13 | AGTCCCCG | -0.23
14 | AATTGATC | -0.122
15 | AGTGAGAT | -0.121
16 | CTCCACCA | -0.25
17 | GGTCTAAA | 0.0137
18 | ACATACGG | 0.233
19 | TAAGACCA | 0.0825
20 | CGAGCTGC | -0.166
21 | GAAACAAC | 0.0246
22 | ACTTTCTA | 0.101

Row | Sequence | PBM E-score
23 | GGACCAGA | 0.0155
24 | AACGACCA | 0.0222
25 | AGAACTGG | -0.133
26 | GGGGGCTA | -0.311
27 | ATGCTTCA | 0.0129
28 | GGAGGACA | -0.0504
29 | AATACTGA | 0.14
30 | AATGGCAT | 0.0838
31 | AAGCGACC | 0.0134
32 | TACAGGGA | 0.0767
33 | CGTCGGAC | -0.223
34 | ATCGTACC | -0.223
35 | AAGTCCAA | -0.0117
36 | CAGCTTAC | 0.117
37 | AATTTCCA | 0.18
38 | CACGCAAA | 0.11
39 | GGTAGGCA | -0.21
40 | AAAGGTGC | -0.175
41 | GGGACTAA | -0.172
42 | AGCTGCTC | -0.17
43 | CGAGTTGA | 0.0373
44 | GCGCATCA | -0.0684

Row | Sequence | PBM E-score
45 | GCACGGAA | -0.101
46 | AAAAGGGC | -0.138
47 | AGGTAGAA | -0.0176
48 | CGCGGGAA | 0.0028
49 | AGTGATGA | -0.152
50 | GTGAGTTA | 0.0231
51 | AGTATTAA | 0.249
52 | CTCGCAAG | 0.00268
53 | CCGCCGAA | -0.15
54 | ACCCAGGC | -0.013
55 | GGAGATCA | -0.209
56 | ATGGGGCA | -0.244
57 | CAACTGAA | -0.0485
58 | AAGACATA | 0.0988
59 | CTCGGGGA | -0.113
60 | AACAAGTC | 0.16
61 | ACATCTAT | 0.184
62 | CTCCAGAA | -0.12
63 | AGCACCCC | -0.21
64 | GGACATAA | 0.05
65 | CCTCACTC | -0.191
66 | CGGCGGTC | -0.26

Row | Sequence | PBM E-score
67 | AGGCTAAC | 0.0383
68 | GTGTTGTA | 0.382
69 | CAACACCC | -0.0107
70 | CTCGCCCC | -0.317
71 | TAGTAAGA | 0.109
72 | ATAATAAG | 0.166
73 | ATAGCTTG | -0.0587
74 | GTAAAATA | 0.2
75 | AACCGGCT | -0.0852
76 | ACGCTGAT | 0.233
77 | CAGTGTCC | -0.116
78 | CCACCTTA | -0.00683
79 | GTCAGGAA | 0.00561
80 | GCGTCCAC | -0.16
81 | AATTGGTG | -0.193
82 | CGTATAAC | 0.251
83 | ACGGCGTC | -0.0814
84 | ATACTGCC | -0.166
85 | CATTTCCA | 0.133
86 | GCTTAAAA | 0.00493
